# Reference: PubChem BioAssay AID1466 (National Center for Advancing Translational Sciences (NCATS), 2008)
# Among all 200,000 compounds or so, about 10 (0.005%) were called active. The shares of active, inactive and inconclusive entries below differ from those in the screen. Calls come from the whole dose curve; as a rule, active = well fitted inhibition curve with a large enough effect; inconclusive = small, poorly fitted or top-dose-only effect, or effect the other way, or another doubt; inactive = no such curve, though single readings can be large or run the other way. No potency is given beside an inconclusive call; the fits are too rough.
# Target: Lysosomal alpha-glucosidase (Homo sapiens) (UniProt P10253)
# Test: qHTS Assay for Inhibitors of Human alpha-Glucosidase as a Potential Chaperone Treatment of Pompe Disease;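 for activity change, negative = inhibition: plate controls were uninhibited enzyme wells for no effect and no-enzyme background for full effect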
# Settings: purified human GAA, 4-MU-alpha-glucoside fluorescence; activity change, negative = inhibition: at 76.9 µM (top of the series) unless noted
# Procedure, shortened: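 qHTS format, compound range up to 77 uM. Human lysosomal enzyme at 4 nM, 400 uM 4-MU glucoside substrate, pH 5.0, 20 min room temperature; fluorescence after alkaline stop gives activity normalized to controls.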
# Potency is the fitted concentration of half-maximal effect; tags give direction and shape of the fitted curve.
Compound,Potency,"activity change, negative = inhibition"
COc1cccc(S(=O)(=O)Nc2ccc(C(=O)N3CCN(C(=O)c4ccco4)CC3)cc2)c1,"inconclusive [inhibitor, partial curve]",–
Cc1nnc(SCCn2c(Br)nc3c2c(=O)n(C)c(=O)n3C)s1,"inconclusive [inhibitor, single point]",–
CCN(C(=O)CSC1=Nc2ccccc2C2CC=NN12)C1CCS(=O)(=O)C1 (configuration not stated),"inconclusive [inhibitor, partial curve]",–
O=C(NCC1CCCO1)C(c1ccc(F)cc1)N(C(=O)Cn1nnc(-c2ccc(F)cc2)n1)c1cccc(O)c1 (configuration not stated),–,inconclusive: 16% [activator]
O=C1CC(NNc2nc3ccccc3s2)C(=O)N1c1ccccc1 (configuration not stated),"inconclusive [inhibitor, full curve, poor fit]",–
Cc1ccc2[nH]c(=O)c(CN(CC3COCCO3)C(=O)Nc3ccccc3C)cc2c1 (configuration not stated),–,inconclusive: 17.9% [activator]
Fc1ccc2[nH]c3c(Cl)ncnc3c2c1,–,inconclusive: 15.1% [activator]
COc1ccc(NC(=O)Cn2nnc(C(=O)NCCc3ccc(OC)c(OC)c3)c2N)c(OC)c1,"inconclusive [inhibitor, single point]",–
O=C(CN1CCCCC1)N1c2ccccc2Sc2ccc(C(F)(F)F)cc21,"inconclusive [inhibitor, single point]",–
O=C(O)/C=C/C(=O)Nc1ccc(C(=O)c2ccccc2)cc1,–,inactive: 6.23%
N/C(=N\OC(=O)c1cccc(Br)c1)c1ccccc1,"inconclusive [inhibitor, single point]",–
CCCCCCCCOC(=O)c1nc(Cl)c(Cl)c(N)c1Cl,"inconclusive [inhibitor, single point]",–
O=C(Cc1cc(=O)oc2cc(O)ccc12)NCC1CCC(C(=O)O)CC1 (configuration not stated),"inconclusive [activator, partial curve]",–
Clc1ccc(-c2nnc3cccc(Cl)n23)c(Cl)c1,"inconclusive [inhibitor, full curve, poor fit]",–
Cc1cc(C)cc(N(CC(=O)N2CCN(c3ccccc3)CC2)S(=O)(=O)c2c(C)noc2C)c1,"inconclusive [inhibitor, partial curve]",–
CC1(C)Cc2c(sc3[nH]c(=S)[nH]c(=O)c23)CO1,"inconclusive [inhibitor, single point]",–
CC(NC(=O)CCSc1nc(-c2ccco2)cc(C(F)(F)F)n1)c1ccccc1 (configuration not stated),"inconclusive [inhibitor, full curve]",–
Cc1cccc(NC(=O)/C(=C\c2cccs2)NC(=O)c2ccccc2)c1,"inconclusive [inhibitor, partial curve, poor fit]",–
CCCCCC(=O)Nc1ccc(-c2cn3cccnc3n2)cc1,"inconclusive [activator, partial curve]",–
Nc1c(S(=O)(=O)c2cccs2)c2nc3ccccc3nc2n1Cc1cccs1,"inconclusive [activator, partial curve]",–
CC(C)CC(NC(=O)c1cccs1)c1nnc(SCc2ccc(Cl)c(Cl)c2)n1C (configuration not stated),"inconclusive [inhibitor, partial curve]",–

Compound,Potency,"activity change, negative = inhibition"
CCN(C(=O)CSc1ncn[nH]1)C1CCCCC1,"inconclusive [inhibitor, single point]",–
Cc1cccc(-n2c(C)cc(C=C3C(=O)c4ccccc4C3=O)c2C)c1,–,inactive: -5.96%
CCOC(=O)Cn1c(CN2CCOCC2)nc2c1c(=O)n(C)c(=O)n2C,"inconclusive [inhibitor, single point]",–
COc1ccc(-c2ccc(C(=O)O)c(=O)[nH]2)cc1,"inconclusive [activator, partial curve]",–
Cc1cc(C)n2nc(SCCCC(=O)c3ccccc3)nc2n1,"inconclusive [inhibitor, partial curve]",–
CCCSc1ncccc1C(=O)O,–,inactive: 3.35%
Cc1ccc(Nc2nnc(SCC(=O)N(C)C3CCS(=O)(=O)C3)s2)cc1 (configuration not stated),"inconclusive [inhibitor, single point]",–
CCOc1cc(S(=O)(=O)NCCc2cccc(C)c2)c(OCC)cc1-n1cnnn1,–,inconclusive: -23.2% [inhibitor]
CCN(CC)c1ccc(/C=N/NC(=S)NCc2ccco2)cc1,–,inconclusive: 15.9% [activator]
CNc1ccc(Br)cc(C(=O)/C=C/c2cccc(OC)c2OC)c1=O,–,inactive: -0.319%
COC(=O)CNC(c1ccccc1)c1cc(Br)ccc1NS(=O)(=O)c1ccccc1 (configuration not stated),"inconclusive [inhibitor, single point]",–
Cc1ccc2oc(=O)c3cnn(CC(=O)N(Cc4ccco4)C4CCCCC4)c3c2c1,"inconclusive [inhibitor, single point]",–
CCc1nnc(NS(=O)(=O)c2ccc(N=Cc3c(C)[nH]n(-c4ccc(C)c(C)c4)c3=O)cc2)s1,–,inactive: -4.75%
COc1cc(C2NC(=O)C(C#N)=C(Nc3cccc(C)c3)S2)ccc1O (configuration not stated),"inconclusive [inhibitor, full curve, poor fit]",–
COc1ccc(NC(=O)Cn2nnc(-c3ccccc3N)n2)cc1OC,"inconclusive [inhibitor, single point]",–
COc1cc(NC(=S)Nc2ncccc2C)cc(OC)c1OC,–,inconclusive: 15.9% [activator]
Cc1oc(/N=C/c2ccc(O)cc2O)c(C#N)c1C,"inconclusive [activator, single point]",–
O=C(NN=C1CCCC1)c1n[nH]c2c1CCC2,–,inconclusive: 13.8% [activator]
COc1ccc2[nH]c(=O)c(CN(CCN(C)C)C(=O)NCc3ccccc3)cc2c1,–,inconclusive: 19.9% [activator]
Cc1ccc(C(=O)Cn2nnc3ccccc32)cc1C,"inconclusive [inhibitor, full curve, poor fit]",–
COc1ccc2c(c1)C(NC(=O)C(F)(F)F)CC2=O (configuration not stated),"inconclusive [inhibitor, single point]",–
